{
  "source": "PubChem BioAssay AID463173",
  "about": "(ICCB-Longwood Screening Facility, Harvard Medical School, 2010)",
  "note": "Out of some 52,000 compounds screened, about 4,300 (8.3%) were called active. No stated cut-off is given here; in the data, active means survival mostly below about 52% (no sharp cut-off); inactive means mostly above about 56%. Some of the results follow.",
  "data": [
    {"test_system": "DeltatarO mutant", "assay": "S. aureus survival, RN4220 and DeltatarO strains – OD600, teichoic acid synthesis inhibitors, primary screen (AID 463173)", "details": "S. aureus RN4220 wild type/DeltatarO growth, OD600, 18 h, stronger effect = lower value, screened at 18.75 µg/mL (by protocol)", "values": [
      {"smiles": "Cn1c(SCC(N)=O)nc2c([nH]c3ccccc32)c1=O", "survival": "inactive: 88%"},
      {"smiles": "CCCN(C(=O)C(=O)Nc1ccc2nc3n(c(=O)c2c1)CCCCC3)c1ccc(OCC)cc1", "survival": "inactive: 58%"},
      {"smiles": "COc1cccc(CNC(=O)CSc2nc(=O)[nH]c3c2CCC3)c1", "survival": "inactive: 80%"},
      {"smiles": "CCOc1ccccc1C(=O)Nc1cccc2ccc(C)nc12", "survival": "inactive: 68%"},
      {"smiles": "CC(SC(=S)N1CCCCCC1)C(=O)O", "note": "(stereo unspecified)", "survival": "inactive: 90%"},
      {"smiles": "O=C(NCCc1csc(-c2ccc(Cl)cc2)n1)c1ccco1", "survival": "inactive: 101%"},
      {"smiles": "COc1ccc(CCNc2nc3ccc(Cl)cc3n3cnnc23)cc1OC", "survival": "inactive: 91%"},
      {"smiles": "Cc1cccc2nc(-c3ccc(N(C)C)cc3)c(Nc3ccc4c(c3)OCO4)n12", "survival": "inactive: 102%"},
      {"smiles": "COc1ccc(CCNS(=O)(=O)c2cc(-c3cc(C)no3)ccc2OC)cc1OC", "survival": "inactive: 83%"},
      {"smiles": "CC(C)c1ccc(-c2noc(SCC(=O)N3CCN(c4ccc(F)cc4)CC3)n2)cc1", "survival": "inactive: 73%"},
      {"smiles": "CCOc1ccc(OCc2ccc(C(=O)Nc3cc(OC)c(OC)c(OC)c3)o2)cc1", "survival": "active: 54%"},
      {"smiles": "Cc1ccc(C)c(NC(=O)N(C)CCc2c(C)nn(C)c2C)c1", "survival": "inactive: 84%"},
      {"smiles": "O=C(CCc1ccccc1)N(Cc1cccnc1)c1nc2c(F)cc(F)cc2s1", "survival": "inactive: 119%"},
      {"smiles": "Cc1ccc(C)c(Nc2nn3c(=O)c4ccc(C(=O)NCCC5=CCCCC5)cc4nc3s2)c1", "survival": "inactive: 90%"},
      {"smiles": "Cc1ccc(N2CC(C(=O)NCCS(=O)(=O)N3CCN(c4ccccc4)CC3)CC2=O)cc1C", "note": "(stereo unspecified)", "survival": "inactive: 83%"},
      {"smiles": "CCOc1ccc(-c2nc(CNC(=O)NC3CCCCC3)c(C)o2)cc1", "survival": "inactive: 90%"},
      {"smiles": "CCNc1nc(N)nc(Oc2ccc(OCC(=O)OC)nn2)n1", "survival": "inactive: 103%"},
      {"smiles": "CCN(CC)CCNc1ncnc2c1cnn2-c1cc(Cl)ccc1C", "survival": "inactive: 77%"},
      {"smiles": "Cc1ccc(C(=O)Nc2nc3nc(C)cc(=O)n3[nH]2)cc1", "survival": "inactive: 91%"},
      {"smiles": "COCCCNC(=O)c1[nH]c2ccccc2c1Sc1ccc(C)cc1", "survival": "inactive: 69%"},
      {"smiles": "Cc1ccccc1NC(=O)Cn1c(=O)n(CCCCCC(=O)NCc2ccccc2Cl)c(=O)c2sccc21", "survival": "inactive: 103%"},
      {"smiles": "Brc1ccc(-c2csc(NN=C3CCCC3)n2)cc1", "survival": "inactive: 102%"},
      {"smiles": "CCS(=O)(=O)N1CCc2cc(C(=O)NCc3ccc(Cl)cc3)ccc21", "survival": "inactive: 92%"},
      {"smiles": "COC(=O)c1c(NC(=O)Cc2cccs2)sc2c1CCCC2", "survival": "inactive: 119%"},
      {"smiles": "O=C1c2ccccc2C(=O)N1CC(O)CN1CCOCC1", "note": "(stereo unspecified)", "survival": "inactive: 81%"},
      {"smiles": "COc1cc(C2CC(=O)c3c([nH]c(C(=O)OCc4ccc(C)cc4)c3C)C2)cc(OC)c1OC", "note": "(stereo unspecified)", "survival": "inactive: 83%"},
      {"smiles": "COc1ccccc1-c1nnc(C2CCN(C(=O)c3cccc(Cl)c3)CC2)o1", "survival": "inactive: 88%"},
      {"smiles": "Cc1cccc(C(c2sc3nc(-c4ccco4)nn3c2O)N2CCN(Cc3ccccc3)CC2)c1", "note": "(stereo unspecified)", "survival": "inactive: 94%"},
      {"smiles": "CCOC(=O)c1ccccc1NC(=O)Cn1c(=O)n(CCC(=O)N2CCc3ccccc3C2)c(=O)c2ccccc21", "survival": "inactive: 87%"},
      {"smiles": "COc1cc(NC(=O)c2cc(Cl)ccc2Cl)ccc1NC(=O)c1cc2ccccc2o1", "survival": "inactive: 55%"},
      {"smiles": "CCOC(=O)c1c(C)oc2ncnc(N3CCN(c4ccc(C)cc4C)CC3)c12", "survival": "inactive: 95%"},
      {"smiles": "O=C(NCCc1ccccc1)c1cc(-c2ccc(Br)cc2)on1", "survival": "inactive: 64%"},
      {"smiles": "O=C(Nc1ccc(Br)cc1F)c1cc(S(=O)(=O)NC2CCCC2)ccc1F", "survival": "inactive: 119%"},
      {"smiles": "O=C(NC1CCCCC1)C1CCCN1C(=O)NCc1ccccc1", "note": "(stereo unspecified)", "survival": "inactive: 62%"},
      {"smiles": "Cc1sc2ncn(CC(=O)Nc3ccc(F)cc3Cl)c(=O)c2c1S(=O)(=O)N1CCN(c2ncccn2)CC1", "survival": "inactive: 66%"},
      {"smiles": "CCn1c(CNC(=O)c2ccccc2F)nnc1SCC(=O)NC1CCCCC1C", "note": "(stereo unspecified)", "survival": "inactive: 71%"},
      {"smiles": "CCOC(=O)c1ccccc1NC(=O)Cn1c(=O)n(CCC(=O)NCc2ccccc2OC)c(=O)c2ccccc21", "survival": "inactive: 85%"},
      {"smiles": "Cc1cc(C)n(C(=O)c2ccoc2C)n1", "survival": "inactive: 96%"},
      {"smiles": "COc1ccc2c(c1)C(C)=CC(C)(C)N2C(=O)Cn1cnc2c(cnn2-c2ccccc2)c1=O", "survival": "inactive: 74%"},
      {"smiles": "CC(Sc1nnc(-c2ccccc2Br)o1)C(=O)Nc1cccc(Cl)c1", "note": "(stereo unspecified)", "survival": "active: 34%"},
      {"smiles": "CCCOc1ccc(C(=O)Nc2ccc3oc(-c4ccc5ccccc5c4)nc3c2)cc1", "survival": "inactive: 129%"},
      {"smiles": "COc1ccc(NC(=O)c2ccc3c(SCC(=O)O)c4c(nc3c2)CCCC4)cc1OC", "survival": "inactive: 129%"},
      {"smiles": "CC(=O)c1cccc(NC(=O)CSc2nnc3ccc(-c4ccc(F)cc4)nn23)c1", "survival": "inactive: 80%"},
      {"smiles": "Cc1cccn2c(=O)cc(CSc3nnc(NC(=O)COc4ccc(F)cc4)s3)nc12", "survival": "active: -2%"},
      {"smiles": "CCOC(=O)c1c(S(=O)(=O)NCC(=O)N2CCN(c3cccc(Cl)c3)CC2)c(C)n(C)c1C", "survival": "inactive: 86%"},
      {"smiles": "COc1ccc(-c2nc3scc(CCNS(=O)(=O)c4c(C)noc4C)n3n2)cc1OC", "survival": "inactive: 119%"},
      {"smiles": "COc1cccc(-c2nnc3n(Cc4ccc(C)cc4)c(=O)c4ccccc4n23)c1O", "survival": "inactive: 83%"},
      {"smiles": "CCN1CCN(c2csc3ccc(F)cc3c2=O)CC1", "survival": "inactive: 94%"},
      {"smiles": "CCCCN(Cc1cccs1)S(=O)(=O)c1cc(-c2cc(C)no2)ccc1C", "survival": "inactive: 70%"},
      {"smiles": "COc1ccc(C)cc1Nc1nc2c(S(=O)(=O)c3cc(C)ccc3C)nnn2c2ccsc12", "survival": "inactive: 86%"},
      {"smiles": "Cc1ccc(CN2CCC(CNC(=O)Nc3ccccc3F)CC2)cc1", "survival": "inactive: 113%"},
      {"smiles": "COc1cc2c(cc1NC(=O)COc1cc(C)cc(C)c1)oc1ccccc12", "survival": "inactive: 59%"},
      {"smiles": "COCCNc1nc2c(S(=O)(=O)c3ccccc3)nnn2c2ccc(Cl)cc12", "survival": "inactive: 74%"},
      {"smiles": "O=C(COc1ccc(Cl)cc1)NCCc1csc(-c2ccc(C(F)(F)F)cc2)n1", "survival": "inactive: 95%"},
      {"smiles": "COc1ccc(Nc2ncnc3scc(-c4ccc(F)cc4)c23)cc1", "survival": "inactive: 92%"},
      {"smiles": "COc1ccc(Cn2c(SCc3ccc(C(=O)NC4CCCCC4)cc3)nc3cccnc32)cc1", "survival": "inactive: 106%"},
      {"smiles": "CC(=O)Nc1ccc2nc(SCCOc3ccc(C)cc3)sc2c1", "survival": "inactive: 94%"},
      {"smiles": "COc1ccc(NC(=O)c2sc3nc(C)c(C(=O)Nc4ccc(C)cc4C)c(-c4sccc4C)c3c2N)cc1", "survival": "inactive: 91%"},
      {"smiles": "COc1ccccc1-c1cc(C(F)(F)F)nc(S(=O)(=O)CCCC(=O)Nc2ccccc2F)n1", "survival": "inactive: 70%"},
      {"smiles": "CCc1c(CN2CCN(c3ccc(F)cc3)CC2)csc1C", "survival": "active: 38%"},
      {"smiles": "CN1CCN(C(=O)C2C3C=CC(C3)C2C(=O)O)CC1", "note": "(stereo unspecified)", "survival": "inactive: 96%"},
      {"smiles": "O=C(Cn1nnc(-c2ccc(C(F)(F)F)cc2)n1)NCCc1ccccc1", "survival": "inactive: 84%"},
      {"smiles": "Cc1cc(C)cc(NS(=O)(=O)c2cc3[nH]c(=O)c(=O)[nH]c3cc2C)c1", "survival": "inactive: 87%"},
      {"smiles": "CC1Cc2cc(S(=O)(=O)CCC(=O)Nc3cccc(F)c3)ccc2N1C(=O)C1CC1", "note": "(stereo unspecified)", "survival": "inactive: 96%"},
      {"smiles": "O=C(Nc1cc(Cl)cc(Cl)c1)c1ccc(F)c(S(=O)(=O)N2CCCC2)c1", "survival": "inactive: 78%"},
      {"smiles": "COc1cc(OC)c(C(=O)NCc2nc(-c3ccccc3)no2)cc1OC", "survival": "active: 41%"},
      {"smiles": "CCc1ccc(CN(Cc2ccco2)c2cnc(S(C)(=O)=O)nc2C(=O)Nc2ccc(C)c(Cl)c2)cc1", "survival": "inactive: 54%"},
      {"smiles": "CCOC(=O)C1CCC(CN(Cc2ccc(OC)cc2)S(=O)(=O)c2ccc(C)cc2)CC1", "note": "(stereo unspecified)", "survival": "inactive: 99%"},
      {"smiles": "NNc1ncccc1C(=O)O", "survival": "inactive: 102%"},
      {"smiles": "Cc1ccc(NC(=O)CN(C)S(=O)(=O)c2cccc3cccnc23)c(C)c1", "survival": "inactive: 81%"},
      {"smiles": "O=C(O)C1C2C3C=CC(C3)C12", "note": "(stereo unspecified)", "survival": "inactive: 64%"},
      {"smiles": "O=C(Cn1ncn2c(cc3cc(F)ccc32)c1=O)NC1CCCCC1", "survival": "inactive: 79%"},
      {"smiles": "COC(=O)c1ccccc1NC(=O)c1cc2ccccn2n1", "survival": "inactive: 73%"},
      {"smiles": "Cc1oc2c(cc(NS(=O)(=O)c3ccc(Br)cc3)c3ccccc32)c1C(=O)OCc1ccccc1", "survival": "inactive: 57%"},
      {"smiles": "CN(C)c1ccc(C(=O)Nc2sc(Nc3ccccc3)nc2C(N)=O)cc1", "survival": "inactive: 86%"},
      {"smiles": "CCCCCn1c(=O)[nH]c2cc(C(=O)N3CCN(c4ccc(OC)cc4)CC3)ccc2c1=O", "survival": "inactive: 135%"},
      {"smiles": "Cc1ccc(C(=O)COC(=O)CCc2nc3ccccc3[nH]c2=O)cc1C", "survival": "inactive: 94%"},
      {"smiles": "COc1ccc(Cn2c(CCC(=O)Nc3ccc(Br)c(C)c3)nc3cccnc32)cc1", "survival": "inactive: 71%"},
      {"smiles": "CC(C)C(=O)Nc1ccccc1C(=O)OCc1cc(=O)n2nc(C3CC3)sc2n1", "survival": "inactive: 85%"},
      {"smiles": "Cc1c(Cl)cccc1NC(=O)c1cc(-c2cccc(Cl)c2)on1", "survival": "inactive: 61%"},
      {"smiles": "O=C(Nc1cccc(Br)c1)Nc1nc2c(s1)CCCCCC2", "survival": "inactive: 71%"},
      {"smiles": "COc1cc2c(C(=O)N3CCN(c4cccc(Cl)c4)CC3)cn(C)c(=O)c2cc1OC", "survival": "inactive: 65%"},
      {"smiles": "O=C(CN1C(=O)c2cccnc2Oc2ccc(Cl)cc21)NCCCN1CCCCC1", "survival": "inactive: 71%"},
      {"smiles": "Cc1nn2c(=O)cc(COC(=O)c3ccc(NC(=O)CCc4ccccc4)cc3)nc2s1", "survival": "inactive: 67%"},
      {"smiles": "CCc1noc(-c2ccc(N3CCC(C)CC3)c([N+](=O)[O-])c2)n1", "survival": "inactive: 66%"},
      {"smiles": "COc1ccc(CCNC(=O)C(=O)NCC(c2ccco2)S(=O)(=O)c2cccs2)cc1", "note": "(stereo unspecified)", "survival": "inactive: 99%"},
      {"smiles": "CCC(Sc1nc2cc3c(cc2c(=O)n1CCCCCC(=O)NCc1ccc2c(c1)OCO2)OCO3)C(=O)NCCCOC", "note": "(stereo unspecified)", "survival": "inactive: 83%"},
      {"smiles": "Cc1ccccc1NC(=O)C1CCN(C(=O)c2ccc(F)cc2)CC1", "survival": "inactive: 70%"},
      {"smiles": "N#C/C(=C\\c1ccco1)C(=O)Nn1cnnc1", "survival": "inactive: 102%"},
      {"smiles": "COc1ccc(-c2nc3ccccc3n2Cc2ccc(C(C)C)cc2)cc1", "survival": "active: 4%"},
      {"smiles": "CCOc1ccc(NC(=O)Cn2cc(C(=O)c3ccc(F)cc3)c(=O)c3cc4c(cc32)OCO4)cc1", "survival": "inactive: 69%"}
    ]}
  ]
}
